The source of these data is the supplement of paper PMC12067093, “Discovery and optimisation of a covalent ligand for TRIM25 and its application to targeted protein ubiquitination” (Chemical Science, 2025).

Targets with the largest changes are over-represented here; the source holds about 21,000 in all.

Compound in the test: Cc1cc(ccc1-c1ccccc1)C(=O)N1CCCN(CC1)C(=O)CCl [compound 10]
Briefly: probe-labelled cysteine peptide fold change vs DMSO (competition) (log2 fold change); higher = less target engagement (more negative = stronger competition). As to conditions: THP-1, incubation time: 4 h.
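Note: competitive profiling in live THP-1 cells: cysteine peptides tagged with an iodoacetamide desthiobiotin (IA-DTB) probe, intensity after compound treatment relative to DMSO-treated cells.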

Chain of UniProt Q96G03 (Q96G03 whole entry, looked up): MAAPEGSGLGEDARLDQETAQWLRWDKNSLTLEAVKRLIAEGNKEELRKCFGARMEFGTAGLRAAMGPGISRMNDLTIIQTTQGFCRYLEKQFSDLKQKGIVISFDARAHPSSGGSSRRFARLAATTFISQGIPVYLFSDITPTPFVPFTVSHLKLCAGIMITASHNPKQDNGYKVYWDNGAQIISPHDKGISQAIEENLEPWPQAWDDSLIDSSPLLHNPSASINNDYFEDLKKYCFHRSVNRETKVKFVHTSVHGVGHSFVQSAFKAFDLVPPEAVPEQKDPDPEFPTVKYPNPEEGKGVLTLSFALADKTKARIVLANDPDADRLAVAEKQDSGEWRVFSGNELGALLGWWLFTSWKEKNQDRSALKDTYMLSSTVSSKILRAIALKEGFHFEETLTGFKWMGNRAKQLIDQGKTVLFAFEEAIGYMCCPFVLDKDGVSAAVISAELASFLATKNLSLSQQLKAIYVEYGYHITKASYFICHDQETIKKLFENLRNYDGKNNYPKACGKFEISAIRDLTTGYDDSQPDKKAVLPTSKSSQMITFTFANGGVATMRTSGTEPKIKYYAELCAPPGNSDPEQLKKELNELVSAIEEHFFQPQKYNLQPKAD
Chain of UniProt P29590 (P29590 whole entry, looked up): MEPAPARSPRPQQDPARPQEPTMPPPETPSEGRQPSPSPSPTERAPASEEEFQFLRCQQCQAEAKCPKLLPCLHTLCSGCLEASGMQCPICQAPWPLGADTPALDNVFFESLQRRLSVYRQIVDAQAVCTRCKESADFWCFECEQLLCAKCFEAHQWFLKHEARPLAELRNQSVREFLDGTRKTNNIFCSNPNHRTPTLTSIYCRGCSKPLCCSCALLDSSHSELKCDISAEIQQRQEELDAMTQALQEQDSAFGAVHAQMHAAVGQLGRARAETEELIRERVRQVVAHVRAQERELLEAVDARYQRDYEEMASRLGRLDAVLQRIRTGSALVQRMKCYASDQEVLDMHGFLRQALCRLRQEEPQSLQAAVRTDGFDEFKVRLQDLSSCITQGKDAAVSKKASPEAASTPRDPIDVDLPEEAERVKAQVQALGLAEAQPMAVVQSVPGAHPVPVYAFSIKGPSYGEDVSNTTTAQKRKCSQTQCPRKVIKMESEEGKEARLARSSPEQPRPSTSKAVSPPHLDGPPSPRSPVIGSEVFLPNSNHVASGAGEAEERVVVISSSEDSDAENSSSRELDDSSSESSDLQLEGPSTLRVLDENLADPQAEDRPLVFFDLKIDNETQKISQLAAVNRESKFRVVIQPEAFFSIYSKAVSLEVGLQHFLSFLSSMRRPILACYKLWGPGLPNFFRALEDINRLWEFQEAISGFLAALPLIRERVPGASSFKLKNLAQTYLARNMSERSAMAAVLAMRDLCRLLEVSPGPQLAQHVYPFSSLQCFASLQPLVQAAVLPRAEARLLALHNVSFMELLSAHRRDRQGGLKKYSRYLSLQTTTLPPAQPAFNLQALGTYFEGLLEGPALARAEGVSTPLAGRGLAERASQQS
Chain of UniProt O96011 (O96011 whole entry, looked up): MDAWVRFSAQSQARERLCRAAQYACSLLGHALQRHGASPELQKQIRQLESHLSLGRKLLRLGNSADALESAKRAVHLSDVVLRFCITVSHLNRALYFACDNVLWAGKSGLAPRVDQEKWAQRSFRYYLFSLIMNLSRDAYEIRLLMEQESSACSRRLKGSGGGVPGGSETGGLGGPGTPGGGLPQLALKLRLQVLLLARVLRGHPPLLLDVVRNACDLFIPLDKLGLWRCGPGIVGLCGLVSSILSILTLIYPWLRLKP
Chain of UniProt P49593 (P49593 whole entry, looked up): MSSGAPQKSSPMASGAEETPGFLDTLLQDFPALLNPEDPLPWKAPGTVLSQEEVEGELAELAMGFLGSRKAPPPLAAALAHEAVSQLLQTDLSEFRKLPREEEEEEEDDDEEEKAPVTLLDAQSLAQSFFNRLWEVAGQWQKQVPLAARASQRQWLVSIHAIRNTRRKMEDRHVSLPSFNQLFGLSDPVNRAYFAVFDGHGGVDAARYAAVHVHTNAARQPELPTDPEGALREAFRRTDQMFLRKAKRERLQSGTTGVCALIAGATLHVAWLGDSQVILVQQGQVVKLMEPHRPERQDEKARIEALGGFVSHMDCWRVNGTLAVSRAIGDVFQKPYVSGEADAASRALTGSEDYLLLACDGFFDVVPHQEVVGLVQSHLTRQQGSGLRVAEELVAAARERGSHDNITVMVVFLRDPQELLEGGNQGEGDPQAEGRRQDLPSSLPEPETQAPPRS
Chain of UniProt Q86U86 (Q86U86 whole entry, looked up): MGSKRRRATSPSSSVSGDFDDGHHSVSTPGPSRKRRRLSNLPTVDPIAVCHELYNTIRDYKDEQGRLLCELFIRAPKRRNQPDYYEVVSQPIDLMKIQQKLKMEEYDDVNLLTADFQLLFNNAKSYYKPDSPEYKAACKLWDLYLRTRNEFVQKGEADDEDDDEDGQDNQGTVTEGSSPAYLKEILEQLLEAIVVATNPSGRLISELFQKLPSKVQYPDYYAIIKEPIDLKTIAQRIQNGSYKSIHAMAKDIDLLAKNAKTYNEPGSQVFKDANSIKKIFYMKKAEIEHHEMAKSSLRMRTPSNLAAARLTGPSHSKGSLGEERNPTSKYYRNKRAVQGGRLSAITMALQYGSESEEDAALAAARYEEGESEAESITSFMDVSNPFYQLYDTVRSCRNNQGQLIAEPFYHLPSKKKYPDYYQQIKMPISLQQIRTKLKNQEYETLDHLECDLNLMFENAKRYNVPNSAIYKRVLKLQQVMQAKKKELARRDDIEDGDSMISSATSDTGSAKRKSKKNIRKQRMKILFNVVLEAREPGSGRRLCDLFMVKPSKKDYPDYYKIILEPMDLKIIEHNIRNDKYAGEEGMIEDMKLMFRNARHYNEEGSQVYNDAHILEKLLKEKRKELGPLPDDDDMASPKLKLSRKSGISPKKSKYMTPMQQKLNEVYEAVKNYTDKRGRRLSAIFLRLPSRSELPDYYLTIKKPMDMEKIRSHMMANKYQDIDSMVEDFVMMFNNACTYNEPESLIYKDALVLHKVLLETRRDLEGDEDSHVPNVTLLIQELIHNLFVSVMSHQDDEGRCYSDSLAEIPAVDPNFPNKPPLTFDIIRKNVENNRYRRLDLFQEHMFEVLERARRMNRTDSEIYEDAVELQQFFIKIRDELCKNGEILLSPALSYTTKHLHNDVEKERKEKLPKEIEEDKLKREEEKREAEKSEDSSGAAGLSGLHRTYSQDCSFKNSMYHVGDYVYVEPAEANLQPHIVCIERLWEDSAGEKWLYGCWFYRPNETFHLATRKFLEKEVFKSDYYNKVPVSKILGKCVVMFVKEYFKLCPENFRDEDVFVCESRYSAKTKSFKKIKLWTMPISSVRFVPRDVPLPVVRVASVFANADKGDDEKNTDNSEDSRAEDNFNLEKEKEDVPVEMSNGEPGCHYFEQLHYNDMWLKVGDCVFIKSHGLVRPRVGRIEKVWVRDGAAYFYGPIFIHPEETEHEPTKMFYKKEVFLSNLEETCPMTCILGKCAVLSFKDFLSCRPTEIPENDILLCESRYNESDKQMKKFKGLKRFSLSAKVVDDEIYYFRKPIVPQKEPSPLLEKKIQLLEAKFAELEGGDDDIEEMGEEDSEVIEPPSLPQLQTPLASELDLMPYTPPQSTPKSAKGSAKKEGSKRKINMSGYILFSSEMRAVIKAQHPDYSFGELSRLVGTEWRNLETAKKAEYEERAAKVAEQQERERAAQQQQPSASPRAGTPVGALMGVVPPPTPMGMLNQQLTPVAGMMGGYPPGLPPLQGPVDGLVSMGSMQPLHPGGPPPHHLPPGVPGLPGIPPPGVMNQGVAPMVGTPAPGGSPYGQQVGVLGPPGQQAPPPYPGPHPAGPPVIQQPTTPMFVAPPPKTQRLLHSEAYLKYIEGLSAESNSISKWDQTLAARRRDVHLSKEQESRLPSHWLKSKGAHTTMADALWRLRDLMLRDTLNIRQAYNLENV
Chain of UniProt Q9NUX5 (Q9NUX5 whole entry, looked up): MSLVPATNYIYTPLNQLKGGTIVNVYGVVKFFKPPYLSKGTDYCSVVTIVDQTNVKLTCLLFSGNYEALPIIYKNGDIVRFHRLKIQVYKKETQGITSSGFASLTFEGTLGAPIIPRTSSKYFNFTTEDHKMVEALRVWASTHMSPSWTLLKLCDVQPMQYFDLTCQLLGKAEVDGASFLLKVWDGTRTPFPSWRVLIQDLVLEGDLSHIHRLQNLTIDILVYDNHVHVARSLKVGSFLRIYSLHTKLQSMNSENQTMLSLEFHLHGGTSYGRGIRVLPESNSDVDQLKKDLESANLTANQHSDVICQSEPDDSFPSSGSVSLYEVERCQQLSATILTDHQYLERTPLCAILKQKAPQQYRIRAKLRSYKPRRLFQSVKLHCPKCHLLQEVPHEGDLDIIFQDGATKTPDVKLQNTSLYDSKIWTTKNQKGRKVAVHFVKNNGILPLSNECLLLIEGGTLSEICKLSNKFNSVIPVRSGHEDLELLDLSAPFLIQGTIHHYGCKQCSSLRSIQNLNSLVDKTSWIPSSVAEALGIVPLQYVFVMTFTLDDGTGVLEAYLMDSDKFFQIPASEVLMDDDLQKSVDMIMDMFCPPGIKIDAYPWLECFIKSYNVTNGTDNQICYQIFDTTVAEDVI
Chain of UniProt P12955 (P12955 whole entry, looked up): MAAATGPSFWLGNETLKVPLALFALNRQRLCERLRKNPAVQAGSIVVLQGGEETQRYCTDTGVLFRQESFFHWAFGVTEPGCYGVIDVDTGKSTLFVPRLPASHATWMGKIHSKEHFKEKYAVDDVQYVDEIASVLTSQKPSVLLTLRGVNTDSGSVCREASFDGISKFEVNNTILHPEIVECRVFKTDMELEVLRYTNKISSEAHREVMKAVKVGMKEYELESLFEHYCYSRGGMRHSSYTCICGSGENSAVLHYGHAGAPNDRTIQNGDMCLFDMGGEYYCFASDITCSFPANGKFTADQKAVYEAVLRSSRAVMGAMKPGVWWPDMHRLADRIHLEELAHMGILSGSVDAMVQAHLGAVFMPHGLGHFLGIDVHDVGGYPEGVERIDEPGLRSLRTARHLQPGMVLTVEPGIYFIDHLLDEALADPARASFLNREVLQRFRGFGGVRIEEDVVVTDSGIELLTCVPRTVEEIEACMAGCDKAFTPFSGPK

With “PFKL_P17858_630_CHDYYTTEFLYNLYSSEGK (UniProt P17858)”, the “probe-labelled cysteine peptide fold change” value reads like this: (10 µM) -0.0345; (50 µM) -0.0915.
In the case of “PPP4C_P60510_52_VDSPVTVCGDIHGQFYDLK (UniProt P60510)”, the “probe-labelled cysteine peptide fold change” value reads like this: (10 µM) 0.0516; (50 µM) 0.0898.
For “PHPT1_Q9NRX4_71_QGCDCECLGGGR (UniProt Q9NRX4)” the same measures were 0.169 and 0.21.
As for PNN_Q9H307_249_MCPATQK (UniProt Q9H307), the “probe-labelled cysteine peptide fold change” value is -0.399 (10 µM) and -2.94 (50 µM).
Regarding “PASK_Q96RG2_991_AVELEGLAACEGEYSQK (UniProt Q96RG2)”, the “probe-labelled cysteine peptide fold change” value runs as follows: (10 µM) -0.902; (50 µM) -2.
For “PHGDH_O43175_48_EELIAELQDCEGLIVR (UniProt O43175)” the same measures were -0.0456 and 0.0884.
Taken in the same sequence, the figures for “PPP3CA_Q08209_228_FKEPPAYGPMCDILWSDPLEDFGNEK (UniProt Q08209)” were 0.209 and 0.221.
For “PLAUR_Q03405_293_SGCNHPDLDVQYR (UniProt Q03405)” the same measures were -0.304 and -0.418.
With “PNPLA6_Q8IY17_991_GCSHIGVLK (UniProt Q8IY17)”, the “probe-labelled cysteine peptide fold change” value was -0.0678 (10 µM) and -0.101 (50 µM).
Taken in the same sequence, the figures for “PCK2_Q16822_417_PWKPGDKEPCAHPNSR (UniProt Q16822)” were -0.16 and -0.314.
For the target “PIK3CD_O00329_416_KADCPIAWANLMLFDYK (UniProt O00329)”, the “probe-labelled cysteine peptide fold change” value (10 µM) was -0.0154 and the “probe-labelled cysteine peptide fold change” value (50 µM) is -0.108.
As for “POLR1A_O95602_880_ACMPFGLHR (UniProt O95602)”, the “probe-labelled cysteine peptide fold change” value came to 0.0335 (10 µM) and 0.0428 (50 µM).
For “POLA1_P09884_584_AAPKPPFQSHFCVVSKPK (UniProt P09884)” the same measures were -0.0155 and -0.312.
For POMP_Q9Y244_37_KGFSCVK (UniProt Q9Y244) the same measures were -0.332 and -1.41.
Taken in the same sequence, the figures for “PDHA1_P08559_181_NFYGGNGIVGAQVPLGAGIALACK (UniProt P08559)” were 0.471 and 0.393.
For “PPP1CC_P36873_127_GNHECASINR<|>PPP1CA_P62140_127_GNHECASINR (UniProt P62140+P36873)”, the “probe-labelled cysteine peptide fold change” value (10 µM) is -0.0251 and the “probe-labelled cysteine peptide fold change” value (50 µM) was 0.0252.
Taken in the same sequence, the figures for “PBRM1_Q86U86_1035_CVVMFVK (UniProt Q86U86)” were 0.0846 and 0.286.
For “POT1_Q9NUX5_605_IDAYPWLECFIK (UniProt Q9NUX5)” the same measures were 0.32 and 0.162.
For “PEX1_O43933_1185_TASQEGCQELTQEQR (UniProt O43933)” the same measures were -0.38 and -2.31.
For “POLR1B_Q9H9Y6_103_EANVYPAECR (UniProt Q9H9Y6)”, the “probe-labelled cysteine peptide fold change” value reads like this: (10 µM) -0.197; (50 µM) 0.15.
For “PNPO_Q9NVS9_156_KLPEEEAECYFHSRPK (UniProt Q9NVS9)” the same measures were -0.121 and -0.243.
For “PHKA1_P46020_91_GLLHCMIR (UniProt P46020)” the same measures were 0.123 and 0.0144.
For “PDS5B_Q9NTI5_1069_LYTVCDVAMNIIMSK (UniProt Q9NTI5)” the same measures were -0.0609 and -0.136.
Consider “PDCD6IP_Q8WUM4_512_ECYQSHR (UniProt Q8WUM4)”, for which the “probe-labelled cysteine peptide fold change” value (10 µM) was -0.437 and the “probe-labelled cysteine peptide fold change” value (50 µM) was -1.11.
For “PGM2_Q96G03_86_MNDLTIIQTTQGFCR (UniProt Q96G03)” the same measures were 0.11 and -0.14.
For “PITPNM1_O00562_259_CNTGSEGSEAQPPGKPSTEAR (UniProt O00562)” the same measures were -0.207 and -0.205.
As for “PLCB2_Q00722_296_GQLSPEGMVWFLCGPENSVLAQDK (UniProt Q00722)”, the “probe-labelled cysteine peptide fold change” value was 0.119 (10 µM) and 0.27 (50 µM).
For “PLA2G15_Q8NCC3_371_SALQCQAWQSR (UniProt Q8NCC3)” the same measures were 0.0131 and 0.0452.
Taken in the same sequence, the figures for “PLIN3_O60664_39_VASMPLISSTCDMVSAAYASTK (UniProt O60664)” were 0.0565 and -0.288.
For “PFN1_P07737_128_CYEMASHLRR (UniProt P07737)” the same measures were -0.403 and -0.731.
Regarding “PKM_P14618_423+424_CCSGAIIVLTK (UniProt P14618)”, the “probe-labelled cysteine peptide fold change” value was -0.246 (10 µM) and -0.751 (50 µM).
For “PML_P29590_227_CDISAEIQQR (UniProt P29590)” the same measures were -0.0553 and 0.0385.
Taken in the same sequence, the figures for “PPM1F_P49593_315_IEALGGFVSHMDCWR (UniProt P49593)” were 0.0343 and 0.104.
For “PPFIA1_Q13136_189_CSLLEEELGATHK (UniProt Q13136)”, the “probe-labelled cysteine peptide fold change” value amounted to 0.194 (10 µM) and 0.209 (50 µM).
For “PPP4C_P60510_266_CGNVAAILELDEHLQK (UniProt P60510)” the same measures were 0.0329 and -0.316.
For “PGM3_O95394_249_LNHLCGADFVK (UniProt O95394)” the same measures were -0.182 and -0.253.
For “PEPD_P12955_230_EYELESLFEHYCYSR (UniProt P12955)” the same measures were 0.0749 and -0.0205.
On to “PEX11B_O96011_153_LLMEQESSACSR (UniProt O96011)”, for which the “probe-labelled cysteine peptide fold change” value was -0.232 (10 µM) and -1.5 (50 µM).
For “PAXIP1_Q6ZW49_136_CTHLIVPEPK (UniProt Q6ZW49)” the same measures were 0.11 and 0.308.
Taken in the same sequence, the figures for “PIAS2_O75928_346_VSLMCPLGK (UniProt O75928)” were 0.0643 and -0.43.
